# Results: PubChem BioAssay AID2675 (National Center for Advancing Translational Sciences (NCATS), 2010)
# Out of some 280,000 compounds screened, about 100 (0.036%) were called active. The shares of active, inactive and inconclusive entries below differ from those in the screen. The call rests on the fitted dose curve; in most records, active means well fitted inhibition curve with a large enough effect in the signal ratio, with a control signal flat (not every such curve was filed as active); inconclusive means small, poorly fitted or top-dose-only effect, or effect the other way, or a change in a side signal; inactive means no such curve, though single readings can be large or run the other way; the % refers to the signal ratio. Potencies beside an inconclusive call are fits to weak or partial responses and may not hold up. “Side channel” marks fits to a control or component signal instead of the main read-out.
# Target: Muscleblind-like protein 1 (Homo sapiens) (UniProt Q9NR56)
# UniProt Q9NR56, sequence (Q9NR56 whole entry, looked up): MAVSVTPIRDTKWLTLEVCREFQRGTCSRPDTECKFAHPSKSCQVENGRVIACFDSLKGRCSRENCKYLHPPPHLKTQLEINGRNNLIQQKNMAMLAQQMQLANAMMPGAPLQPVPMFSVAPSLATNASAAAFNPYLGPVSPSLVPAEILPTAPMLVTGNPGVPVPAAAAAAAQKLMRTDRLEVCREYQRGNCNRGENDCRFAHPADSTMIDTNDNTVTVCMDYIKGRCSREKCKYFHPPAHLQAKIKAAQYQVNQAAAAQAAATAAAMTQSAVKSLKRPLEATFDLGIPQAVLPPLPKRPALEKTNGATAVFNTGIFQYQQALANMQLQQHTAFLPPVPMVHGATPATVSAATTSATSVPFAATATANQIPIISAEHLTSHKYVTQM
# Test: qHTS Assay for Inhibitors of MBNL1-poly(CUG) RNA binding
# Details: TR-FRET MBNL1-His/biotin-(CUG)12 binding, 665/545 ratio; activity change, negative = inhibition: at 57.5 µM (top of the series)
# Procedure, shortened: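 Ratiometric TR-FRET (665 over 545 nm, excitation 340 nm) tracks disruption of MBNL1-His/biotin-(CUG)12 complex after 60 min at room temperature, with compounds at 92 nM to 58 uM final.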
# On the % scale 0 is the no-effect control and ±100 the full control effect; potency means the concentration at half of the fitted maximal effect; tags describe the fitted curve by direction and shape or compound fluorescence and quenching.
Structure (SMILES),Potency,"activity change, negative = inhibition"
O=C(Nc1c(C(=O)N2CCOCC2)oc2ccccc12)c1cccc([N+](=O)[O-])c1,"inconclusive: 3.16 µM [quencher, side channel, single point]",–
COc1ccc(-c2c(C)n([O-])c(C)c(C)[n+]2=O)cc1OC,"inconclusive: 20 µM [quencher, side channel, single point]",–
Cc1[nH]c(=O)[nH]c(=O)c1S(=O)(=O)Nc1ccc(F)c([N+](=O)[O-])c1,"inconclusive: 15.8 µM [quencher, side channel, partial curve]",–
O=C1CCCC(=O)C1=C1SCCCS1,"inconclusive: 7.94 µM [quencher, side channel, partial curve]",–
COc1ccc(-c2nc3ccccc3c(=O)n2NC(=S)N(C)C)cc1,–,inactive: -2.36%
CCOC(=O)c1[nH]cnc1C(=O)Nc1ccc([N+](=O)[O-])cc1,"inconclusive: 8.91 µM [quencher, side channel, partial curve]",–
O=C(O)CCCN(Cc1cccc(Br)c1)S(=O)(=O)c1ccc(Br)cc1,"inconclusive: 63.1 µM [inhibitor, partial curve]",–
CCn1cc(CNCc2cn(C)nc2-c2ccc(C3CCCCC3)cc2)cn1,–,inactive: -1.41%
Cc1ccccc1Oc1ncnc(N)c1[N+](=O)[O-],"inconclusive: 15.8 µM [quencher, side channel, partial curve]",–
Oc1ccc(COCc2ccccc2)c2cccnc12,"inconclusive: 17.8 µM [quencher, single point]",–
NC(=O)c1cccnc1Nc1cccc([N+](=O)[O-])c1,"inconclusive: 14.1 µM [quencher, side channel, partial curve]",–
CCn1c(NC(=O)c2cccc(Cn3cc(Cl)cn3)c2)nc2ccccc21,"inconclusive: 7.08 µM [fluorescent, side channel, full curve, poor fit]",–
O=C(O)CSc1c2c(nc3cc(C(=O)N4CCCC4)ccc13)CCCC2,"inconclusive: 28.2 µM [quencher, side channel, single point]",–
CCC(C)NCC(=O)Nc1ccc([N+](=O)[O-])cc1C(=O)Nc1ccccc1F (stereo not drawn),"inconclusive: 25.1 µM [quencher, side channel, partial curve, poor fit]",–
O=C(Nc1nncs1)c1c(F)c(F)c(F)c(F)c1F,–,inactive: -3.7%
N#CC1=C(N)Oc2c(ccc3cccnc23)C1c1cccnc1 (stereo not drawn),"inconclusive: 39.8 µM [quencher, single point]",–
O=C(O)c1c(-c2ccccc2)c2oc3ccccc3c2[nH]c1=O,"inconclusive: 39.8 µM [quencher, side channel, single point]",–
O=C(Nc1cccc(S(=O)(=O)N2CCCCC2)c1)c1c2c(nc3ccccc13)CCN(Cc1ccccc1)C2,–,inconclusive: 4.23% [phenotype inactive]
C/C(=N\Nc1ccc(S(N)(=O)=O)cc1[N+](=O)[O-])c1ccco1,"inconclusive: 6.31 µM [quencher, side channel, partial curve]",–
O=C(O)c1cc2cc(Cl)cc(Cl)c2oc1=O,"inconclusive: 12.6 µM [quencher, side channel, partial curve]",–
COC(=O)C1=CN(Cc2ccc(OC)cc2)C=C(C(=O)OC)C1c1cccs1,"inconclusive: 39.8 µM [quencher, single point]",–

Structure (SMILES),Potency,"activity change, negative = inhibition"
COc1ccccc1NC(=O)c1c(Nc2ccccc2F)sc(C(=O)Nc2cccc(Cl)c2)c1N,"inconclusive: 5.01 µM [quencher, side channel, full curve, poor fit]",–
COc1ccc2c(/C=N/Nc3ccc(C(=O)O)cc3)c[nH]c2c1,"inconclusive: 20 µM [quencher, side channel, partial curve]",–
O=C(Cn1cnc2c(cnn2-c2ccccc2)c1=O)N1CCN(c2ccc(F)cc2)CC1,–,inactive: -4.25%
c1ccc2c(NC3CCCC3)nnc(NC3CCCC3)c2c1,–,inactive: 1.14%
CC1(C)Cc2ccccc2-c2nnc(SCc3ccccc3)n21,"inconclusive: 0.355 µM [quencher, side channel, full curve, poor fit]",–
COC(=O)CN1C(=O)N/C(=C/c2ccc(OC)cc2)C1=O,"inconclusive: 7.08 µM [quencher, side channel, partial curve]",–
O=C(NCC1CCCO1)C1CCN(C(=O)c2ccc(Br)cc2)CC1 (stereo not drawn),"inconclusive: 8.91 µM [quencher, side channel, single point]",–
CCN(CC)C(=O)c1ccc2c(=O)n(Cc3cccc(Br)c3)c(=S)[nH]c2c1,–,inactive: 17.8%
O=C(CC1N=C(Cc2ccccc2)NNC1=O)N/N=C/c1ccc([N+](=O)[O-])cc1 (stereo not drawn),"inconclusive: 14.1 µM [quencher, side channel, partial curve]",–
O=C(c1ccc(N2CCOCC2)c([N+](=O)[O-])c1)N1CCN(Cc2ccccc2)CC1,"inconclusive: 28.2 µM [quencher, side channel, partial curve]",–
COc1cc(C(=O)Nc2cccc(-c3nc4ncccc4o3)c2C)cc(OC)c1OC,–,inactive: 3.88%
O=C(Nc1cccc(Cl)c1N1CCCC1)c1ccco1,–,inactive: -2.59%
CC(C)OCCCNC(=O)C1CCC(CNS(=O)(=O)c2ccccc2)CC1 (stereo not drawn),–,inactive: -10.1%
N#C/C(=C\c1c(N(Cc2ccccc2)Cc2ccccc2)nc2ccccn2c1=O)C(N)=O,"inconclusive: 22.4 µM [quencher, single point]",–
O=C(CNC(=O)c1ccc(S(=O)(=O)N2CCCC2)cc1)N/N=C/c1c(Cl)cccc1Cl,–,inactive: -3.31%
Cc1cccc(NCc2cc(Cl)ccc2O)n1,"inconclusive: 79.4 µM [inhibitor, single point]",–
Nc1ccccc1N=Nc1ccccc1N,"inconclusive: 14.1 µM [quencher, side channel, partial curve]",–
O=C(NC(Nc1ccccn1)C(Cl)(Cl)Cl)c1ccccc1 (stereo not drawn),"inconclusive: 39.8 µM [fluorescent, side channel, single point]",–
Cc1ccc(O)c(C(=O)c2cnn(-c3ccccc3)c2)c1,–,inactive: 3.33%
Cc1ccc(-c2nc3ccccc3s2)cc1NC(=S)NC(=O)c1cccc2ccccc12,–,inactive: -11.1%
O=C(O)CC(c1ccccc1)N1C(=O)c2cccc([N+](=O)[O-])c2C1=O (stereo not drawn),"inconclusive: 11.2 µM [quencher, partial curve]",–

Structure (SMILES),Potency,"activity change, negative = inhibition"
CCOC(=O)Nc1ccc(S(=O)(=O)N(C)C(C)C)cc1,"inconclusive: 4.47 µM [fluorescent, side channel, single point]",–
O=C(NCCNc1ccc(Cl)cc1[N+](=O)[O-])c1cccnc1,"inconclusive: 12.6 µM [quencher, side channel, partial curve]",–
O=[N+]([O-])c1cccc(NC(=S)NCCc2ccccc2)c1,"inconclusive: 14.1 µM [quencher, side channel, partial curve]",–
Cc1cc(C)c2c(N)c(C(=O)NNC(=O)c3ccccc3)sc2n1,"inconclusive: 25.1 µM [quencher, side channel, partial curve]",–
CC(C)Sc1nc(NCc2ccco2)c2c3c(sc2n1)COC(C)(C)C3,–,inactive: 15.2%
Clc1ccccc1-c1nn2c(-c3ccncc3)nnc2s1,–,inactive: -3.59%
O=c1ccc(-c2nc3ccccc3n2Cc2ccc(Cl)cc2)c[nH]1,–,inactive: -2.86%
O=C(CSc1ccsc1[N+](=O)[O-])Nc1cccc(F)c1,"inconclusive: 39.8 µM [quencher, side channel, single point]",–
O=C(COc1ccc2ccccc2c1Br)N1CCCC1,"inconclusive: 31.6 µM [quencher, single point]",–
O=c1c([N+](=O)[O-])cccn1Cc1cccc(Cl)c1,"inconclusive: 10 µM [quencher, side channel, partial curve]",–
O=[N+]([O-])c1ccccc1S(=O)(=O)c1ccccc1[N+](=O)[O-],"inconclusive: 11.2 µM [quencher, side channel, partial curve]",–
Cc1ccc(CSCCNC(=O)CN(c2cccc([N+](=O)[O-])c2)S(C)(=O)=O)cc1,"inconclusive: 17.8 µM [quencher, side channel, partial curve]",–
Cc1[nH]c(C(=O)N/N=C/c2ccc(C(=O)O)cc2)c(C)c1C(=O)N/N=C/c1ccc(C(=O)O)cc1,"inconclusive: 17.8 µM [quencher, side channel, partial curve]",–
CS(=O)(=O)N(CC(=O)NCc1ccccc1Cl)c1cccc([N+](=O)[O-])c1,"inconclusive: 10 µM [quencher, side channel, partial curve]",–
CCCn1c2ccc(C)cc2c2n[nH]c(=S)nc21,"inconclusive: 14.1 µM [quencher, side channel, partial curve]",–
O=C(/C=C/c1cccs1)NCc1ccc2c(c1)OCO2,"inconclusive: 25.1 µM [quencher, side channel, partial curve]",–
Nc1ccc(NC(=O)NC2CCCCC2)cc1[N+](=O)[O-],"inconclusive: 2.24 µM [quencher, side channel, full curve]",–
O=C(NC(=S)Nc1cc(-c2nc3ccccc3[nH]2)ccc1Cl)c1ccc2c(c1)OCO2,–,inactive: -0.551%
O=C(/C=C/c1ccccc1Cl)c1ccc(O)cc1,–,inactive: -3.47%
Cc1ccc(/C=C2\SC(=S)N(CCC(=O)NCCCN3CCOCC3)C2=O)cc1,"inconclusive: 10 µM [quencher, side channel, partial curve]",–
Cc1ccc(-c2nc(C(=O)NCCCN(C)C)cc3c2[nH]c2ccccc23)cc1,"inconclusive: 79.4 µM [inhibitor, single point]",–
